Molecular target: Human FcRn (human, UniProt P55899 in part; P61769 in part)
Experiment: BIAcore equilibrium binding

Chain of UniProt P55899 (P55899 24-297, chain 1 of 2): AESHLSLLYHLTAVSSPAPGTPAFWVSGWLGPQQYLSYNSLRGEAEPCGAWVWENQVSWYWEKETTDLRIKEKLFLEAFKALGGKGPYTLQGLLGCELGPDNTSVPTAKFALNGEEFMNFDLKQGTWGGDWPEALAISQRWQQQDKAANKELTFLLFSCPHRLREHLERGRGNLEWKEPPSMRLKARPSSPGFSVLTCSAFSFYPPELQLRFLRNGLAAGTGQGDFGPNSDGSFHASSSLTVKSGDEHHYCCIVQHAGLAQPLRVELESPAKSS
Chain of UniProt P55899 (P61769 21-119, chain 2 of 2, further chain): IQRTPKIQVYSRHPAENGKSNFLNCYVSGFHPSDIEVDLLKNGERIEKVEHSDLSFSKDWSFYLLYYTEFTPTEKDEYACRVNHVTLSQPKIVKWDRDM

B1: biMab-EI (PaniX/Dalo) (bispecific antibody)
heavy: QVQLQESGPGLVKPSETLSLTCTVSGGSVSSGDYYWTWIRQSPGKGLEWIGHIYYSGNTNYNPSLKSRLTISIDTSKTQFSLKLSSVTAADTAIYYCVRDRVTGAFDIWGQGTMVTVSSASTKGPSVFPLAPSSKSTSGGTAALGCLVKDYFPEPVTVSWNSGALTSGVHTFPAVLQSSGLYSLSSVVTVPSSSLGTQTYICNVNHKPSNTKVDKRVEPKSCGKTGGGGSGGGGSDIVMTQSPLSLPVTPGEPASISCRSSQSIVHSNGNTYLQWYLQKPGQSPQLLIYKVSNRLYGVPDRFSGSGSGTDFTLKISRVEAEDVGVYYCFQGSHVPWTFGCGTKVEIKGGGGSGGGGSGGGGSGGGGSQVQLQESGPGLVKPSETLSLTCTVSGYSITGGYLWNWIRQPPGKCLEWIGYISYDGTNNYKPSLKDRVTISRDTSKNQFSLKLSSVTAADTAVYYCARYGRVFFDYWGQGTLVTVSSGGGGSGGGGS[left out - human IgG1 Fc]
light: DIQMTQSPSSLSASVGDRVTITCQASQDISNYLNWYQQKPGKAPKLLIYDASNLETGVPSRFSGSGSGTDFTFTISSLQPEDIATYFCQHFDHLPLAFGGGTKVEIKRTVAAPSVFIFPPSDEQLKSGTASVVCLLNNFYPREAKVQWKVDNALQSGNSQESVTEQDSKDSTYSLSSTLTLSKADYEKHKVYACEVTHQGLSSPVTKSFNRGEC
- Kd: 930 nM

— patent US20170114151A1 (published 2017)
